From paper PMC11513070 come the findings set out here.

In assay [1] the target is T1, SPPL2c (Signal peptide peptidase-like 2c), endogenous in murine testis (mouse (endogenous in testis)) (UniProt A2A6C4).
T1 sequence (chain, N-glycosylated at N106): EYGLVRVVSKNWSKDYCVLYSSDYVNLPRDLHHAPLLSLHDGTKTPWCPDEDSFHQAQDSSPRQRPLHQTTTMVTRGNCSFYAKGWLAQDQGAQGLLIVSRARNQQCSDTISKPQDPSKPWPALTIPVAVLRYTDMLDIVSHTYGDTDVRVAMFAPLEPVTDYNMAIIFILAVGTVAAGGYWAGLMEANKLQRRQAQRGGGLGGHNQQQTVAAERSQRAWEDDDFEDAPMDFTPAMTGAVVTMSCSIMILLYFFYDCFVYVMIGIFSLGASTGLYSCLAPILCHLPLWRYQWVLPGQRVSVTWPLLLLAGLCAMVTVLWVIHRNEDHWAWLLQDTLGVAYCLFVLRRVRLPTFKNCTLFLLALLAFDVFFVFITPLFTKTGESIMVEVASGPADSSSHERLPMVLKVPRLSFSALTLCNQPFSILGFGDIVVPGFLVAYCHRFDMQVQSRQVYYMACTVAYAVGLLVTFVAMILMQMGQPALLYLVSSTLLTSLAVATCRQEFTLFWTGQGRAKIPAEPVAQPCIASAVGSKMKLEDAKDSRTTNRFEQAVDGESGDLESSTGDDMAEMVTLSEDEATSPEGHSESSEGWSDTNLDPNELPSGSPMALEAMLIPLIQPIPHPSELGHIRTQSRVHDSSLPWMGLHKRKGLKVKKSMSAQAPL
Briefly: co-IP; endogenous SPPL2c precipitated with anti-SPPL2c (C-terminus) sepharose beads from mouse testis lysates (0.5% DDM; for Frey1 also CHAPSO, DM and digitonin tried; wild type, Sppl2c-/-, Frey1-/- and double-deficient mice), overnight at 4 °C; western blot. A general note: A western blot detects proteins with antibodies after separation by electrophoresis.

The next assay has as its target T2, Frey1-3xFLAG (UniProt Q8CF31).
T2 sequence: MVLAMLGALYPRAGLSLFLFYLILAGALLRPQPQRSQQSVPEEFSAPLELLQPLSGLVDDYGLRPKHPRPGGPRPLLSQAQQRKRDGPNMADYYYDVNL
Briefly: co-IP; Frey1-3xFLAG co-expressed with SPPL2c-myc variants in HEK293T cells (wild type or calnexin-deficient clone #9) and precipitated from DDM lysates with anti-FLAG beads; western blot.

The target of assay [2] is T3, calnexin-3xFLAG (murine) (mouse) (UniProt P35564).
T3 sequence: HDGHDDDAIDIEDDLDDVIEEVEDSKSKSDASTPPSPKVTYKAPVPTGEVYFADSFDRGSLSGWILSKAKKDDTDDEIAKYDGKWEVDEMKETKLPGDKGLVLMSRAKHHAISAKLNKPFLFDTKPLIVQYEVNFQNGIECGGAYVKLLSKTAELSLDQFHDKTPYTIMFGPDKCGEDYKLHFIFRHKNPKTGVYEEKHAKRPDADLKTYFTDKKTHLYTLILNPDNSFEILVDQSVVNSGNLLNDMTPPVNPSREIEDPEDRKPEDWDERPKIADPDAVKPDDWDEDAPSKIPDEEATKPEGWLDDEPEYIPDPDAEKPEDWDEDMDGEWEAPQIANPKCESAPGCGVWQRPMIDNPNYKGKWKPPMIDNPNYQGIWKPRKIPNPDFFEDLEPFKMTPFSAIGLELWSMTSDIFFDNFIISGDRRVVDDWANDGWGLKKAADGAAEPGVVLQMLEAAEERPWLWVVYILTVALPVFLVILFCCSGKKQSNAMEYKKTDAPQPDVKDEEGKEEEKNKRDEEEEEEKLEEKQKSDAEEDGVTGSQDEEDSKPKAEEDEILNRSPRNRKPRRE
Briefly: co-IP; 3xFLAG-tagged calnexin or calmegin co-expressed with SPPL2c-myc in HEK293T cells, lysis in 0.5% DDM, chaperone precipitated with anti-FLAG beads; western blot.

For assay [3], the target named is T4, calmegin-3xFLAG (murine) (mouse) (UniProt P52194).
T4 sequence: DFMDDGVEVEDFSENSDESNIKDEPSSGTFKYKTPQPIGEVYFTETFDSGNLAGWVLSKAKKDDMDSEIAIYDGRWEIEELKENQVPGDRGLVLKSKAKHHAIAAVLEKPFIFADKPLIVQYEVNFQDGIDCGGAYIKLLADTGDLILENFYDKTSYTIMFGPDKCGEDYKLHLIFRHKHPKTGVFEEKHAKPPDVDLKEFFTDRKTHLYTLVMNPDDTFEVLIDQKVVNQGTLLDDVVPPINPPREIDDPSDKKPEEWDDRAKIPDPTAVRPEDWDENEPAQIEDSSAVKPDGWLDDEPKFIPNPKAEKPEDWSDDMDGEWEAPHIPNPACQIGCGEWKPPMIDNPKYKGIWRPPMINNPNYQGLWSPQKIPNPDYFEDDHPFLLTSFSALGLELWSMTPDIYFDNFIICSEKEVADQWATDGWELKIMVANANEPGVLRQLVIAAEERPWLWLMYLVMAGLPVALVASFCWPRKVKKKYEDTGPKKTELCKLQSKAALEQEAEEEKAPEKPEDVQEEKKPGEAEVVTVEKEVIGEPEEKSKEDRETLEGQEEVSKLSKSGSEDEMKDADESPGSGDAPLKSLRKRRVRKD
Described as above.

These are yes or no findings as the source states them, for the method shown. In cells and extracts the contact can be indirect. Some results given as binding are weak or reduced against the parent protein; the word gives no strength. For part of these data: Sequences can lack the tags named with a protein.

B1: calnexin, endogenous in murine testis (protein, UniProt P35564 21-591)
chain: HDGHDDDAIDIEDDLDDVIEEVEDSKSKSDASTPPSPKVTYKAPVPTGEVYFADSFDRGSLSGWILSKAKKDDTDDEIAKYDGKWEVDEMKETKLPGDKGLVLMSRAKHHAISAKLNKPFLFDTKPLIVQYEVNFQNGIECGGAYVKLLSKTAELSLDQFHDKTPYTIMFGPDKCGEDYKLHFIFRHKNPKTGVYEEKHAKRPDADLKTYFTDKKTHLYTLILNPDNSFEILVDQSVVNSGNLLNDMTPPVNPSREIEDPEDRKPEDWDERPKIADPDAVKPDDWDEDAPSKIPDEEATKPEGWLDDEPEYIPDPDAEKPEDWDEDMDGEWEAPQIANPKCESAPGCGVWQRPMIDNPNYKGKWKPPMIDNPNYQGIWKPRKIPNPDFFEDLEPFKMTPFSAIGLELWSMTSDIFFDNFIISGDRRVVDDWANDGWGLKKAADGAAEPGVVLQMLEAAEERPWLWVVYILTVALPVFLVILFCCSGKKQSNAMEYKKTDAPQPDVKDEEGKEEEKNKRDEEEEEEKLEEKQKSDAEEDGVTGSQDEEDSKPKAEEDEILNRSPRNRKPRRE
As to B1, the binding entry in assay [1] is on record as “binds”.

B2: Frey1, endogenous in murine testis (protein, UniProt Q8CF31 1-99)
chain: MVLAMLGALYPRAGLSLFLFYLILAGALLRPQPQRSQQSVPEEFSAPLELLQPLSGLVDDYGLRPKHPRPGGPRPLLSQAQQRKRDGPNMADYYYDVNL
Consider B2, for which the binding result in assay [1] is “binds”.

B3: SPPL2c-myc (murine SPPL2c isoform A, wild type) (enzyme, UniProt A2A6C4 29-690)
chain: EYGLVRVVSKNWSKDYCVLYSSDYVNLPRDLHHAPLLSLHDGTKTPWCPDEDSFHQAQDSSPRQRPLHQTTTMVTRGNCSFYAKGWLAQDQGAQGLLIVSRARNQQCSDTISKPQDPSKPWPALTIPVAVLRYTDMLDIVSHTYGDTDVRVAMFAPLEPVTDYNMAIIFILAVGTVAAGGYWAGLMEANKLQRRQAQRGGGLGGHNQQQTVAAERSQRAWEDDDFEDAPMDFTPAMTGAVVTMSCSIMILLYFFYDCFVYVMIGIFSLGASTGLYSCLAPILCHLPLWRYQWVLPGQRVSVTWPLLLLAGLCAMVTVLWVIHRNEDHWAWLLQDTLGVAYCLFVLRRVRLPTFKNCTLFLLALLAFDVFFVFITPLFTKTGESIMVEVASGPADSSSHERLPMVLKVPRLSFSALTLCNQPFSILGFGDIVVPGFLVAYCHRFDMQVQSRQVYYMACTVAYAVGLLVTFVAMILMQMGQPALLYLVSSTLLTSLAVATCRQEFTLFWTGQGRAKIPAEPVAQPCIASAVGSKMKLEDAKDSRTTNRFEQAVDGESGDLESSTGDDMAEMVTLSEDEATSPEGHSESSEGWSDTNLDPNELPSGSPMALEAMLIPLIQPIPHPSELGHIRTQSRVHDSSLPWMGLHKRKGLKVKKSMSAQAPL
modifications: N-glycosylated at N106
In the case of B3, the binding result (in the assay with Frey1-3xFLAG; in assay [2]; in assay [3]) was “binds” in each case.

B4: SPPL2c N106A-myc (murine isoform A, glycosylation-deficient) (enzyme, UniProt A2A6C4 29-690)
chain: EYGLVRVVSKNWSKDYCVLYSSDYVNLPRDLHHAPLLSLHDGTKTPWCPDEDSFHQAQDSSPRQRPLHQTTTMVTRGACSFYAKGWLAQDQGAQGLLIVSRARNQQCSDTISKPQDPSKPWPALTIPVAVLRYTDMLDIVSHTYGDTDVRVAMFAPLEPVTDYNMAIIFILAVGTVAAGGYWAGLMEANKLQRRQAQRGGGLGGHNQQQTVAAERSQRAWEDDDFEDAPMDFTPAMTGAVVTMSCSIMILLYFFYDCFVYVMIGIFSLGASTGLYSCLAPILCHLPLWRYQWVLPGQRVSVTWPLLLLAGLCAMVTVLWVIHRNEDHWAWLLQDTLGVAYCLFVLRRVRLPTFKNCTLFLLALLAFDVFFVFITPLFTKTGESIMVEVASGPADSSSHERLPMVLKVPRLSFSALTLCNQPFSILGFGDIVVPGFLVAYCHRFDMQVQSRQVYYMACTVAYAVGLLVTFVAMILMQMGQPALLYLVSSTLLTSLAVATCRQEFTLFWTGQGRAKIPAEPVAQPCIASAVGSKMKLEDAKDSRTTNRFEQAVDGESGDLESSTGDDMAEMVTLSEDEATSPEGHSESSEGWSDTNLDPNELPSGSPMALEAMLIPLIQPIPHPSELGHIRTQSRVHDSSLPWMGLHKRKGLKVKKSMSAQAPL
Take B4: the binding result with Frey1-3xFLAG was “binds”.
